No constants are given. Whether binding was seen depends on the method and setting. Binding seen in cells or lysates may run through a third protein. Some entries that bind do so weakly or less than the wild type. Where a sequence is shown, tags or fusion partners need not be part of it.

Common to all, as to experiment: co-IP; HEK293T cells co-transfected with HA-tagged CSF1R and Myc-tagged TREM2 constructs, lysed after 24 h in 1% TNEN (50 mM Tris-HCl pH 8.0, 150 mM NaCl, 2 mM EDTA, 1% NP-40); immunoprecipitated with anti-Myc or HA antibodies and Protein G Dynabeads; immunoblot
In test [1] the target is T1, Myc-tagged full-length TREM2 (triggering receptor expressed on myeloid cells-2) (UniProt Q9NZC2).
T1 sequence: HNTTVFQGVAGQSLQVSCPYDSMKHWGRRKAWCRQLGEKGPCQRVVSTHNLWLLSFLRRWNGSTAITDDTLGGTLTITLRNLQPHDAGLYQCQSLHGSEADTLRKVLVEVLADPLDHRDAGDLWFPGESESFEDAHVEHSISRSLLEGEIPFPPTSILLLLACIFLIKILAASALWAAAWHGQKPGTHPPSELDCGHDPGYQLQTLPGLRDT

Test [2] addresses T2, TREM2-NTF (1 aa -171 aa), Myc-tagged (UniProt Q9NZC2).
T2 sequence: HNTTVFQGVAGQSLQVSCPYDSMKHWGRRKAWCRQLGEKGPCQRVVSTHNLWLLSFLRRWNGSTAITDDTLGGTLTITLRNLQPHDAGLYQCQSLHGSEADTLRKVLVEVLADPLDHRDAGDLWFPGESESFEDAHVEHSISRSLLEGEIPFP

For test [3], the target named is T3, TREM2-CTF (164 aa - 230 aa), Myc-tagged (UniProt Q9NZC2).
T3 sequence: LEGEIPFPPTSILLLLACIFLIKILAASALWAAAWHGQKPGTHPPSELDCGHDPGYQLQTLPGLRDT

As for “CSF1R amino-terminal fragment (NTF, 1 aa - 514 aa), HA-tagged (from UniProt P07333 20-514) (domain or fragment)”, the binding result in test [1] is recorded as “no binding”.
Take “HA-tagged full-length CSF1R (colony-stimulating factor 1 receptor) (from UniProt P07333 20-972)”: the binding entry in test [2], in test [3] and in test [1] was “binds” each time.

B1: CSF1R carboxyl-terminal fragment (CTF, 514 aa - 972 aa), HA-tagged (domain or fragment, UniProt P07333 514-972)
chain: LFTPVVVACMSIMALLLLLLLLLLYKYKQKPKYQVRWKIIESYEGNSYTFIDPTQLPYNEKWEFPRNNLQFGKTLGAGAFGKVVEATAFGLGKEDAVLKVAVKMLKSTAHADEKEALMSELKIMSHLGQHENIVNLLGACTHGGPVLVITEYCCYGDLLNFLRRKAEAMLGPSLSPGQDPEGGVDYKNIHLEKKYVRRDSGFSSQGVDTYVEMRPVSTSSNDSFSEQDLDKEDGRPLELRDLLHFSSQVAQGMAFLASKNCIHRDVAARNVLLTNGHVAKIGDFGLARDIMNDSNYIVKGNARLPVKWMAPESIFDCVYTVQSDVWSYGILLWEIFSLGLNPYPGILVNSKFYKLVKDGYQMAQPAFAPKNIYSIMQACWALEPTHRPTFQQICSFLQEQAQEDRRERDYTNLPSSSRSGGSGSSSSELEEESSSEHLTCCEQGDIAQPLLQPNNYQFC
On to B1, for which the binding result in test [1] is “binds”.

Source of the values: PMC8027073.
